From ChEMBL document CHEMBL4888484, “Replenishing the malaria drug discovery pipeline: Screening and hit evaluation of the MMV Hit Generation Library 1 (HGL1) against asexual blood stage Plasmodium falciparum ,using a nano luciferase reporter read-out” (2022) come the findings set out here.

About 540 (0.36%) of roughly 150,000 compounds showed an effect of 50% or more. The list shows a part of the results.

For this experiment, the system named is Plasmodium falciparum. Description: Primary screen in NF54 nanoGlo assay, in single point, at 2uM, 72h; a lower Z score goes with more inhibition. The experiment is classed as functional, Erythrocyte. The conditions noted are these: timepoint 72 hour.
The term % Inhibition denotes the change of the read-out against control, counted positive when it falls. Regarding `CC(=O)NCC(=O)N1CC(n2cc(COc3ccccc3)nn2)C1`, the “% Inhibition” value was -12% and the Z score was determined as 1.8.
For `CC1(C)CN(c2ccc(CS(C)(=O)=O)cn2)C[C@]1(C)O`, in that order: -2% and 0.46.
Regarding `CS(=O)(=O)NCC1(Cc2ccccc2)CCC1`, the “% Inhibition” value is given as -1% and the Z score was 0.23.
For `Cn1cc(Br)c(N)cc1=O`, in that order: 7% and -1.35.
Take `CN1CC[C@H](C(=O)NCCc2cccnc2)CC1=O`: the “% Inhibition” value is on record as -12% and the Z score was determined as 1.51.
Consider `CCNC(=O)N1CCC(F)(C(=O)N2CCCC2)CC1`, for which the “% Inhibition” value was -6% and the Z score came out at 0.81.
Turning to `CCc1cc(OCC(N)=O)ccc1Cl`, the “% Inhibition” value is -13% and the Z score worked out at 1.71.
With `CC1=NN(Cc2ccccc2)C(=O)[C@H]1C(=O)Nc1ccccc1`, the “% Inhibition” value was -11% and the Z score was 1.69.
For `Cc1cc2cccc(C(=O)N3C[C@H](O)[C@@H](F)C3)c2o1`, in that order: -6% and 1.17.
The corresponding values for `Cc1cc(C)c(-c2cc(C(=O)NCCC(=O)N3CCOCC3)no2)c(C)c1` are -2% and 0.35.
Turning to `COc1ccc(C2=NN(C(=O)CN(CCN3CCOCC3)C(=O)NC(C)C)[C@H](c3ccccc3)C2)cc1`, the “% Inhibition” value is recorded as -22% and the Z score is given as 1.94.
For `O=C(O)c1[nH]nc(C2CC2)c1Cc1ccccc1`, in that order: -7% and 1.41.
Take `COc1ccc(N2CCN(C(=O)c3sc4nc(-c5ccccc5)cn4c3C)CC2)cc1`: the “% Inhibition” value is -15% and the Z score is recorded as 1.98.
Take `Cc1noc(C)c1COC(=O)c1nccnc1-c1nc2ccccc2s1`: the “% Inhibition” value is listed as -1% and the Z score worked out at 0.13.
In the case of `O=C(CCCNS(=O)(=O)c1ccc(Cl)cc1)NCc1ccco1`, the “% Inhibition” value is on record as -12% and the Z score was found to be 1.59.
With `COc1c(C)cc(S(=O)(=O)N2CCC[C@H]2c2ccon2)cc1C`, the “% Inhibition” value was -6% and the Z score worked out at 1.24.
The corresponding values for `Cc1ccc(N(C)C(=O)c2cccc(=O)[nH]2)cc1C` are -1% and 0.1.
The corresponding values for `O=C(COc1ccccc1)N1CCC[C@H](S(=O)(=O)N2CCOCC2)C1` are -10% and 1.64.
Consider `COCCC1(CNC(=O)CC(F)(F)F)CCCC1`, for which the “% Inhibition” value is -12% and the Z score is 1.59.
As for `CN(C)S(=O)(=O)Nc1ccc2nc(-c3ccccn3)oc2c1`, the “% Inhibition” value is given as 3% and the Z score was -0.3.
For `CCn1nc(-c2ccc(C)c(F)c2)nc1N(C)C`, the “% Inhibition” value is reported as -8% and the Z score is reported as 1.49.
`O=C1CCCC[C@@H](C(=O)N2CCCCC2)N1`: the “% Inhibition” value turned out to be 5% and the Z score is listed as -0.89.
The corresponding values for `CCC(=O)Nc1nc2ccc(NS(=O)(=O)Cc3ccccc3)cc2s1` are 31% and -0.31.
Regarding `O=C(COc1ccc(N2C[C@@H](C(=O)NCc3ccc4c(c3)OCO4)CC2=O)cc1)Nc1ccc(Cl)cc1`, the “% Inhibition” value is listed as -12% and the Z score came out at 1.78.
`CC(C)Oc1cccc(C(=O)[C@H]2CCCN(c3nc(C(N)=O)cs3)C2)c1`: the “% Inhibition” value is listed as -16% and the Z score came out at 2.23.
Regarding `Cc1cccc(-c2noc(N3CCOCC3)c2CN(Cc2ccco2)C(=O)c2ccc(F)cc2)c1`, the “% Inhibition” value was -11% and the Z score came out at 1.36.
Regarding `CC(C)Cn1c(=O)c2sccc2n(CC(=O)N(C)c2ccccc2)c1=O`, the “% Inhibition” value turned out to be 2% and the Z score is given as -0.28.
The corresponding values for `CC(C)Cc1cc(C(=O)NCC2(O)CCCCC2)on1` are -14% and 1.39.
Turning to `Cc1cc(CNCc2c(C)noc2C)no1`, the “% Inhibition” value is on record as -1% and the Z score is listed as 0.13.
`CC(C)(C)c1nnc2ccc(N[C@@H](CO)C3CCCC3)nn12`: the “% Inhibition” value was -10% and the Z score is listed as 1.89.
For the compound `Cc1nc(CC(C)C)c(NC(=O)NCCN2CCCOCC2)s1`, the “% Inhibition” value was -8% and the Z score was found to be 1.29.
Regarding `CO[C@H]1CCN(C(=O)C(=O)N2CCCCC2)C1`, the “% Inhibition” value was -11% and the Z score stood at 2.06.
Take `Cn1cncc1C(=O)N[C@@](C)(CO)c1cccc(C(F)(F)F)c1`: the “% Inhibition” value is 4% and the Z score is listed as -0.48.
Consider `Cc1ccc(-c2ncc(C#N)c(=O)n2CC(=O)N(C)c2ccccc2)cc1`, for which the “% Inhibition” value was 4% and the Z score was -0.54.
Consider `O=C(O)CN(C(=O)CNC(=O)c1ccc(C(F)(F)F)cc1)C1CCCCC1`, for which the “% Inhibition” value is recorded as -7% and the Z score is on record as 1.07.
The corresponding values for `COc1cc(OC)c2c(c1)N(C(=O)[C@@H]1CCCS1(=O)=O)CCC2` are 6% and -0.58.
`CN(CCNC(=O)c1nnc(C(=O)Nc2ccc(F)cc2)s1)Cc1ccccc1`: the “% Inhibition” value is reported as -12% and the Z score came out at 1.13.
In the case of `Cn1c(N2CCN(C(=O)c3ccccc3)CC2)cc(=O)n(C)c1=O`, the “% Inhibition” value is reported as -5% and the Z score stood at 0.72.
`Cc1ccc(CCCNCc2sncc2Br)cn1`: the “% Inhibition” value was -7% and the Z score is recorded as 1.13.
For `CC1(C)OC(=O)c2c1ccnc2NCCC(=O)N1CCCCCC1`, the “% Inhibition” value is reported as -7% and the Z score is listed as 0.88.
`Fc1cccc(-c2ccc(CNc3nnc([C@@H]4CCCO4)o3)o2)c1F`: the “% Inhibition” value is recorded as -3% and the Z score amounted to 0.32.
Consider `Nc1ccc(Cl)cc1OCC(F)F`, for which the “% Inhibition” value is -5% and the Z score amounted to 0.52.
Turning to `CC1(c2ccccc2)COC2(OC1)C(=O)N(CN1CCCCC1)c1ccccc12` (configuration not stated), the “% Inhibition” value is on record as -4% and the Z score came out at 0.48.
Turning to `c1cn(Cc2ccsc2)c(-c2ccc3nonc3c2)n1`, the “% Inhibition” value is -8% and the Z score came to 1.53.
The corresponding values for `CC(=O)N1CCCN(C(=O)c2cc(C)n(Cc3ccco3)c2C)CC1` are -9% and 0.8.
In the case of `NC(=NCC1(Cc2ccc(F)cc2)CC1)N1CCOCC1`, the “% Inhibition” value was -1% and the Z score is 0.15.
As for `Cc1cnccc1CN1CC2(CCCCC2)CC1=O`, the “% Inhibition” value is -10% and the Z score was determined as 2.
In the case of `CC(C)(C)CC(=O)Nc1nccnc1C(=O)NC1CCN(C(=O)c2ccc(F)cc2)CC1`, the “% Inhibition” value is -17% and the Z score was determined as 1.68.
Take `CC(C)c1nc2cc(C(=O)NCCc3nc(-c4ccccc4)no3)ccc2o1`: the “% Inhibition” value is on record as 5% and the Z score is reported as -0.66.
On to `CO[C@H]1COC[C@H]1Nc1nc(C(C)C)no1`, for which the “% Inhibition” value was -9% and the Z score amounted to 1.22.
With `COc1ccc(-c2nccn2-c2ccc3nccnc3c2)cc1O`, the “% Inhibition” value is -6% and the Z score is listed as 0.8.
The corresponding values for `COc1c2c(c(CNC(=O)CC(C)C)c3c1C(=O)N(C)CC3)OCO2` are -4% and 0.49.
For `COCc1nc(C)c(CNC(=O)c2cc(C)oc2C)s1`, the “% Inhibition” value is on record as -29% and the Z score stood at 3.08.
For the compound `C[C@H]1OCC(=O)N(Cc2ccccc2)[C@@H]1C(=O)NC1CCN(C2CCC2)C1=O` (some centres not stated), the “% Inhibition” value is 9% and the Z score is -1.51.
`CC(=O)N1CC(O)CC1c1nc(-c2cc(F)c(F)c(F)c2)no1` (configuration not stated): the “% Inhibition” value is recorded as -18% and the Z score came to 1.96.
For `Cc1cc(N2CCn3nc(CNc4ncccn4)cc3C2)ccn1`, the “% Inhibition” value was -21% and the Z score was found to be 2.34.
